Measured values: PubChem BioAssay AID485297 (National Center for Advancing Translational Sciences (NCATS), 2010)
About 9,100 (2.8%) of roughly 320,000 compounds were called active. The inconclusive results got no clear call from the source; some entries with a clear call stand among them for comparison. Calls follow the shape of the dose curve; as a rule, active = well fitted activation curve with a large enough effect; inconclusive = small, poorly fitted or top-dose-only effect; inactive = no such curve, though single readings can be large or run the other way. Where the call is inconclusive, the potency comes from a doubtful curve fit.

Test: qHTS Assay for Rab9 Promoter Activators; also: nearly all actives have a fitted effect of over 60% in size; as to activation, negative = inhibition: % of control where 0% means no effect
Settings: Huh7 Rab9 promoter-luciferase reporter, luminescence, 24 h; series mostly up to 9.22 µM; activation, negative = inhibition: at the top concentration
Procedure, shortened: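 Luminescence from Amplite-detected luciferase (10 minutes, ambient) reports Rab9 promoter activation. Before that, stable Rab9-luciferase Huh7 cells (1500/well, reduced-serum OP-MEM I plus 10% FBS) were exposed to compound for 24 hours at 37C.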
Potency is read from the fitted curve at half-maximal effect; tags tell the direction and shape of the fitted curve.

Potency, active:
Cc1ccc(Nc2nc(N)nc(COC(=O)C3=COCCO3)n2)cc1 2.82 µM
O=C(Nc1nccs1)c1ccc(CSc2ccccc2)o1 2 µM
O=C(Nc1ccc([N+](=O)[O-])cc1)c1ccccc1F 2.82 µM
COc1ccc2c(c1)CC/C(=C\Nc1ccc3c(c1)OCO3)C2=O 2.51 µM
C/C(=N\N=C(/N)c1nonc1N)c1ccc2c(c1)OCO2 0.891 µM
O=C(Nc1cccc([N+](=O)[O-])c1)NC1CCCCCCC1 2.51 µM
CCOc1ccc(-c2nnc(-c3ccccc3)o2)cc1 0.708 µM
N#C/C(=N\Nc1ccc(Cl)cc1)C(=N)N1CCCCCC1 0.316 µM
COc1cccc(/C=N/Nc2ccccc2C(=O)O)c1O 0.398 µM
Cc1ccc(C)c(OCc2cc(C(=O)N3CCN(C(=O)c4ccco4)CC3)no2)c1 4.47 µM
O=C(COc1ccccc1Cl)Nc1cc(NC(=O)COc2ccccc2Cl)cc(C(=O)O)c1 3.98 µM
Cc1cccc(NC(=O)COc2ccc(Br)cc2/C=N/O)c1 3.98 µM
O=[N+]([O-])c1ccccc1/C=C/c1ccc2ccccc2n1 3.98 µM
Cc1cccc(-n2ncc3c(N4CCC5(CC4)OCCO5)ncnc32)c1 2.51 µM
O=C(Nc1ccccc1)c1ccc2c(c1)OCO2 2.51 µM

Potency, inconclusive:
O=C(Nc1ccc(Cl)cn1)c1ccc2c(Cl)c3c(nc2c1)CCC3 0.1 µM [activator, full curve, poor fit]
CCn1c(SC(=O)NC2CCCCC2)nnc1-c1cccs1 5.62 µM [activator, single point]
Cc1ccc(-c2ccc(SCC(=O)Nc3nonc3C)nn2)cc1 1.58 µM [activator, partial curve]
O=C(NNC(=O)c1cccs1)c1ccccc1 4.47 µM [activator, partial curve]
COC(=O)c1ccc(CO/N=C/c2ccc(OC)cc2)o1 1.78 µM [activator, partial curve]
O=C(O)c1ccccc1N/N=C\c1ccnc2ccccc12 0.316 µM [activator, partial curve]
CCC(=O)Nc1cc(C)c(NC(=O)CCc2ccccc2)cn1 6.31 µM [activator, single point]
O=C(Nc1ccc(F)cc1F)c1csc(-c2cccs2)n1 5.01 µM [activator, single point]
CCOC(=O)c1c(C)[nH]c(C(=O)COC(=O)/C=C/c2ccc(OCC#N)c(OC)c2)c1C 1 µM [activator, single point]
COCCNC(=O)c1ccc(CSc2nc3ccccc3s2)cc1 2.51 µM [activator, partial curve]
O=C(Nc1ccc(F)cc1)Nc1cccnc1Cl 3.55 µM [activator, partial curve]
c1ccc(-n2cnc3cc(NCc4ccncc4)ccc32)cc1 3.98 µM [activator, single point]
COc1cc(C)ccc1OCC(=O)NC1CCCCCC1 3.98 µM [activator, single point]
Cc1ccc2c(c1)cc1c(=O)[nH]ncn12 3.55 µM [activator, single point]
CC(=O)c1ccc(OCc2cc(C(=O)N3CCOCC3)no2)cc1 3.98 µM [activator, partial curve]
Cc1ccc2nc(NC(=O)C3CCCN(S(=O)(=O)c4cnc[nH]4)C3)sc2c1 (centres undefined) 2.82 µM [activator, partial curve]
CC1CCN(c2ccc(NC(=O)Cc3ccccc3)cc2)CC1 3.55 µM [activator, single point]
O=C(Nc1ccc(-c2cnco2)cc1)c1ccc(F)cc1F 1.41 µM [activator, partial curve]
CC(=O)Nc1c(-c2ccc3ccccc3c2)nc2ccccn12 3.55 µM [activator, single point]
Cc1ccc(OCCNC(=O)c2ccc3c(c2)OCO3)cc1 3.16 µM [activator, partial curve]
FC(F)(F)c1nc2cc3nc4ccccc4[nH]c3cc2n1 2.51 µM [activator, partial curve]
Cc1ccc(OC(=O)COc2ccccc2C)c(-n2nc3ccccc3n2)c1 3.55 µM [activator, single point]
N/C(=N\OC(=O)c1ccccc1Cl)c1ccc(Cl)cc1 3.98 µM [activator, single point]
COc1ccc(-c2oc3ccccc3c(=O)c2OC(=O)c2ccc(C)cc2)cc1 6.31 µM [activator, single point]
Cc1ccc(C(=O)N/C(=C\c2ccccc2)C(=O)OCc2ccccc2)cc1 2.51 µM [activator, partial curve]
CCc1ccc(C(=O)COC(=O)[C@@H](NC(N)=O)[C@@H](C)CC)cc1 3.55 µM [activator, partial curve]
O=C(Nc1ccccn1)c1sc2cccc(F)c2c1Cl 5.62 µM [activator, single point]
COc1ccccc1C(=O)NNC(=O)c1ccccc1 6.31 µM [activator, single point]
CCOC(=O)c1oc2cccc(OC(C)=O)c2c1C 6.31 µM [activator, single point]
O=C(NCCc1ccc(O)cc1)c1ccc(Cl)cc1 3.55 µM [activator, single point]
COC(=O)c1ccccc1N/C=C/C(=O)c1ccc(Br)cc1 5.01 µM [activator, single point]
Cc1ccc(Nc2nc(CSc3nnc(-c4ccccc4C)n3C)cs2)cc1 5.62 µM [activator, single point]
CC1CCC(NC(=O)CCC(=O)N2CC(C)Oc3ccccc32)CC1 (centres undefined) 3.16 µM [activator, partial curve]
NC(=O)COc1ccc2oc(-c3ccccc3)cc(=O)c2c1 4.47 µM [activator, single point]
Cc1nn(-c2ccc3ccccc3c2)c(=O)c2ccccc12 5.01 µM [activator, single point]
Cc1c(C(=O)Nc2nc3ccccc3[nH]2)oc2ccc(Br)cc12 2.51 µM [activator, partial curve]
CCOc1ccccc1NC(=O)Nc1ccc2c(c1)CCC2 1.12 µM [activator, full curve]
Nc1nnc(SCC(=O)NNC(=O)c2ccc([N+](=O)[O-])cc2)s1 5.62 µM [activator, single point]
Cn1c(CSc2ccccc2)c(C#N)c2ccccc21 5.62 µM [activator, single point]
CN(C)C(=O)c1cc(C(=O)c2ccc(Cl)cc2Cl)c[nH]1 5.62 µM [activator, single point]
COC(=O)NCC(C)OC(=O)Nc1cccc(Cl)c1 (centres undefined) 3.55 µM [activator, single point]
Nc1cccc2cc(-c3ccccc3)oc12 6.31 µM [activator, single point]
COc1ccc(C(=O)Nc2cnc(NC(=O)c3cccs3)cc2C)cc1 4.47 µM [activator, partial curve]

activation, negative = inhibition, inactive:
CC(C)C1N(C(=O)CN2CCCCC2)CCN1S(=O)(=O)c1ccccc1 (centres undefined) -3.98%
CC1=C(C)C(OCCBr)N(c2cc(O)c(Cl)cc2F)C1=O (centres undefined) -5.29%
Cc1ccc(SCc2cc(=O)[nH]c(N3CCN(Cc4ccc5c(c4)OCO5)CC3)n2)cc1 -1.4%
CSCC[C@H](NC(=O)OC(C)(C)C)C(=O)N/N=C/c1cc2ccc(C)cc2nc1Cl 0.316%
CCOC1(/N=C(\C)NS(=O)(=O)c2ccc(Cl)cc2)C(C)=CC(=O)C=C1C -0.249%
Cc1cc([N+](=O)[O-])ccc1NC(=O)CSc1nnc(C)n1C 4.14%
Clc1ccc(-c2nnc(SCc3nc4ccccc4s3)o2)cc1 29.6%
CC(OC(=O)c1nn(C(C)C)c(=O)c2ccccc12)C(=O)Nc1ncc(Cl)cc1Cl (centres undefined) -0.194%
N#Cc1ccccc1OCC(=O)OCC(=O)Nc1ccc2c(c1)OCO2 11.1%
CNC(=S)Nc1cccc2[nH]ncc12 -6.22%
O=C(Cn1cnc2ccccc21)N1CCN(S(=O)(=O)c2ccccc2)CC1 -11.4%
CC1CCN(C(=O)CN2C(=O)NC3(CCCCCC3)C2=O)CC1 1.85%
CCN(CC)C(=O)c1ccc(N)cc1 3.6%
CN(C(=O)/C=C/c1ccc([N+](=O)[O-])s1)c1ccccc1 -17.7%
CN1CCN(CCn2c(=S)[nH]c3ccccc3c2=O)CC1 -3.38%
O=C(Nc1cccc([N+](=O)[O-])c1)Nc1cccs1 9.31%
Cc1c(Cl)cccc1NC(=S)Nc1ccccn1 -24.6%
COc1ccc(Br)cc1/C=C/C(=O)Nc1ccc2ccccc2c1 -4.81%
CC(=O)c1ccc(OCCn2c(SCC(=O)O)nc3ccccc32)cc1 3.15%
Cc1ccc2nc(N/C(=N/S(=O)(=O)c3ccc(F)cc3F)c3ccccc3)sc2c1 10.5%
Cc1cc(/C(N)=N/OC(=O)c2cccc(Cl)c2)no1 15.4%
